# Laboratory results reported in article PMC6919601, “Identification of Plasmodium dipeptidyl aminopeptidase allosteric inhibitors by high throughput screening” (PLoS ONE, 2019).
# Among all 110,000 compounds or so, about 230 (0.21%) showed an effect of 50% or more. The list shows a part of the results.
# Biological target: DPAP1 (Plasmodium falciparum, UniProt Q8IIJ9)
# Test: primary screen, percent inhibition; read by cleavage of a fluorogenic dipeptide substrate; higher = more effect of the substance
# Design: species or system P. falciparum D10 trophozoite lysates; single well
# 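Also: 30 min substrate incubation versus DMSO and 10 µM JCP410 controls.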
# DPAP1, sequence (Q8IIJ9 whole entry, looked up): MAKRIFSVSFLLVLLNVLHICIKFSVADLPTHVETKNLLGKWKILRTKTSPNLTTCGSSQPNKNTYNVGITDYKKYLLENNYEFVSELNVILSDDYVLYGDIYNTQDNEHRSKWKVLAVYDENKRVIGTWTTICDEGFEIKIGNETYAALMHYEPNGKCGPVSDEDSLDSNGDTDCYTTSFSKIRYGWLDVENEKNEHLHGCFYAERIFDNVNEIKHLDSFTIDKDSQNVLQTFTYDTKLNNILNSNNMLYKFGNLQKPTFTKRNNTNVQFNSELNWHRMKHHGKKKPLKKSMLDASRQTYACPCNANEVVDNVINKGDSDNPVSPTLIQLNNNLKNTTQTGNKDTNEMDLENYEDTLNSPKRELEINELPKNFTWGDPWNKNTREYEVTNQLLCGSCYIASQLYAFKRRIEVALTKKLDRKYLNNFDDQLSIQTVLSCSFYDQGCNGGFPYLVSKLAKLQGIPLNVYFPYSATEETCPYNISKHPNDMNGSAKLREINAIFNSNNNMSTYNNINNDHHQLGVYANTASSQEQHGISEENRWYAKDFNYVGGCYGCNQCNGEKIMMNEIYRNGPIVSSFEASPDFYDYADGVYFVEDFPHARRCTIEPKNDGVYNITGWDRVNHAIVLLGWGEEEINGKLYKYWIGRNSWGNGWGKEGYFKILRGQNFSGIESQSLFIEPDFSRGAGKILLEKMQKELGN
row,SMILES,% Inhibition @ 10 uM
1,CC(C)(C)c1ccc(Oc2nc3ccccn3c(=O)c2/C=C(\C#N)C(=O)N2CCOCC2)cc1,-1.86%
2,CCCCOc1ccc(C2=NC(=O)/C(=C/c3cccc(OC)c3OC)O2)cc1,2.1%
3,O=C(Cc1cn(Cc2cccc(Cl)c2)c2ccccc12)N1CCCC1,1.91%
4,Cc1ccc(CNC(=O)CN(C)S(=O)(=O)c2cccc3nsnc23)cc1,16.4%
5,CC(=O)c1ccc(-c2nnc(-c3ccccc3)o2)cc1,-2.7%
6,O=C(NCc1ccc2c(c1)OCO2)c1ccc(Cl)cc1,-1.32%
7,CC(Oc1ccccc1)C(=O)NC1CCN(Cc2ccccc2)CC1 (centres unmarked),2.84%
8,CCC(=O)Nc1nn2c(-c3ccc(OC)cc3)nnc2s1,3.36%
9,CC(C)(C)c1ccc(C(=O)NCc2nc(-c3ccccc3)no2)cc1,3.74%
10,COc1cc(C2C3=C(O)CCCC3=NC3=C2C(=O)CCC3)ccc1OCC(=O)O (centres unmarked),-5.79%
11,O=C(O)CCS(=O)(=O)c1cc(Cl)ccc1Cl,-3.66%
12,O=C(Nc1cccc(O)c1)c1cccc(S(=O)(=O)N2CCCCC2)c1,-1.74%
13,Cc1cc(C(=O)NCCN2CCN(C)CC2)c2c(C)nn(-c3ccccc3Cl)c2n1,-4.97%
14,O=C(O)C1CCN(S(=O)(=O)c2cccs2)CC1,-5.76%
15,CCN1C(=O)/C(=C/c2ccc(O)c(OC)c2)S/C1=N/c1ccc(OC)cc1,-1.55%
16,Cc1cc(C)c2nc3s/c(=C\c4ccc(N5CCOCC5)cc4)c(=O)n3c2c1,-0.436%
17,Clc1ccc2oc(-c3ccccc3)c/c(=N\Cc3cccnc3)c2c1,0.561%
18,CCN1CCN(c2c(S(=O)(=O)c3ccc(C)cc3)cnc3ccc(C)cc23)CC1,-7.15%
19,CCCCNC(=O)C(C)n1c2ccccc2c2cnnc(O)c21 (centres unmarked),-0.281%
20,Cc1ccc(Cn2ncc3c(O)ncnc32)cc1,-0.132%
21,CCOc1ccc(C2c3c(oc4ccccc4c3=O)C(=O)N2c2nncs2)cc1 (centres unmarked),-5%
22,O=C(Nc1ccccc1F)C1CCN(S(=O)(=O)c2ccc(F)cc2)CC1,-2.45%
23,Cc1nn(C)c2c1c(-c1ccccc1)cc(=O)n2Cc1ccc2nonc2c1,3.47%
24,COc1cc(C)c(Cl)c(C)c1S(=O)(=O)N1CCN(c2ccccc2)CC1,1.1%
25,CO/C(O)=C(C#N)/C=N/c1ccccn1,4.61%

row,SMILES,% Inhibition @ 10 uM
1,COc1cccc(NC(=O)C(c2ccccc2)c2ccccc2)c1,1.91%
2,Cn1c2ccccc2c2cnn(CC(=O)N3CCC(C(N)=O)CC3)c(=O)c21,-3.67%
3,O=C(O)CCCC1(C(=O)O)CCCC1,1.29%
4,c1ccc(-c2nc(NC3CCCCC3)cc(-n3cccn3)n2)cc1,3.48%
5,CNS(=O)(=O)c1cn(CC(=O)N2CCN(C)CC2)cc1S(=O)(=O)NC,-8.28%
6,CCc1nnc(NC(=O)CCn2cnnn2)s1,1.76%
7,COc1ccc(C2CC(=O)C3=C(C2)NC(=O)CC3c2ccc(C)cc2)cc1 (centres unmarked),2.54%
8,Cc1ccc(C(O)C#CC(O)(c2ccccc2)c2ccccc2)o1 (centres unmarked),3.39%
9,Cn1ncc2c(N3CCc4ccccc4C3)ncnc21,5.08%
10,Cc1nnc(NC(=O)c2cc(=O)c3ccc(C)c(C)c3o2)s1,6.56%
11,COc1ccc(C(=N)NOC(=O)COc2ccccc2)cc1OC,-1.4%
12,Cc1ccc(NC=C2C(=O)CC(c3ccccc3Cl)CC2=O)cc1 (centres unmarked),4.07%
13,O=C(NCc1ccco1)/C(=C\c1cccs1)NC(=O)c1ccsc1,-0.736%
14,COc1ccc(S(=O)(=O)Nc2ccc3c(c2)OCCO3)c(Cl)c1Cl,1.28%
15,CN(C)S(=O)(=O)c1ccccc1[N+](=O)[O-],-4.01%
16,COc1ccccc1CC(=O)c1ccc(O)cc1O,2.17%
17,O=C(Cn1nc(Cc2ccncc2)c2ccccc2c1=O)NCCC1=CCCCC1,2.04%
18,CCS(=O)(=O)N1CCC(C(=O)NCCCN2CCC(C)CC2)CC1,-1.21%
19,Cc1nn(CC(=O)N2CCOCC2)c(=O)c2cccn12,-11.7%
20,COc1cccc(C(=O)COc2cccc(N3C(=O)C4C5C=CC(C6CC56)C4C3=O)c2)c1 (centres unmarked),-2.28%
21,Cc1nc2c3ccccc3n3c(CCCC(=O)NCCCN(C)Cc4ccccc4)nnc3n2n1,-6.52%
22,CC(C)Cn1cc(NC(=O)N(CCCN2CCOCC2)Cc2ccco2)c2ccccc2c1=O,-0.171%
23,N#Cc1nc(COc2ccccc2)oc1NCCCn1ccnc1,-5.63%
24,O=C(c1ccncc1)N1C2C=CC(C2)C1(C(F)(F)F)C(F)(F)F (centres unmarked),3.54%
25,CCOc1ccc2nc(NC(=O)CC(c3ccc(OC)cc3)n3cccc3)sc2c1 (centres unmarked),-0.72%

row,SMILES,% Inhibition @ 10 uM
1,O=C(COc1ccc(Br)cc1)Nc1ccc(CN2CCCCC2)cc1,0.661%
2,CCc1cc2c(cc3c(=O)n(CCCC(=O)NCc4ccccc4)ncn32)s1,0.0198%
3,CCCn1c(=N)c(C(=O)NCCN2CCOCC2)cc2c(=O)n3cc(C)ccc3nc21,-5.14%
4,CCOc1ccc(CCNC(=O)C2CC(=O)N(CCc3ccccc3)C2)cc1OCC (centres unmarked),-7.35%
5,COc1cc2c(cc1OC)C(c1ccccc1)=NC1(CCCC1)C2,-4.24%
6,C=C(C)Cn1c(CCNC(=O)C2CCCCC2)nc2ccccc21,4.8%
7,CC(=O)Nc1nc2cc(Cl)c(C)cc2s1,-4.49%
8,COC(=O)c1cc(OC)c(OC)cc1NC(=O)c1ccc([N+](=O)[O-])cc1,-1.76%
9,CCCCN(CC)CCNC(=O)C1CCCN(c2ncnc3c2nc2n3CCCCC2)C1 (centres unmarked),5.7%
10,COc1cccc(NC(=O)c2cccnc2)c1,-0.294%
11,Cc1[nH]c(=O)n(Cc2ccccc2)c(=O)c1S(=O)(=O)NCc1ccccc1,-2.28%
12,Cc1ccc(-c2noc(CSc3nnc(-c4ccncc4)n3C)n2)cc1,-0.45%
13,COc1ccc(Cl)cc1S(=O)(=O)N1CCCCC1,-0.711%
14,CN(C)c1ccc(C2Nc3ccc4ncccc4c3C3=C2C(=O)CCC3)cc1 (centres unmarked),3.65%
15,Cc1ccc2c(c1)C(NC(=O)/C=C/c1ccco1)CC1(CCCCC1)O2 (centres unmarked),-3.21%
16,O=C(O)c1cc(O)nc2ccc(Br)cc12,1.7%
17,COc1cc2c(cc1OC)C(COc1cccc(C(F)(F)F)c1)N(C(=O)c1ccco1)CC2 (centres unmarked),-0.928%
18,CC(C)(C)OC(=O)N1CCC(C(=O)N[C@@H](Cc2ccc3ccccc3c2)C(=O)N[C@@H](COCc2ccccc2)C(=O)CO)CC1,10.2%
19,COc1ccc(-c2cn3nc(N4CCC(C(=O)N5CCCCCC5)CC4)sc3n2)cc1,-4.44%
20,C=CCSc1nc2sc3c(c2c(=O)n1Cc1ccccc1)CCCC3,4.57%
21,O=C(/C=C/c1cccc([N+](=O)[O-])c1)c1ccccc1,0.00178%
22,Cc1oc(-c2ccc(C(=O)NCC3CCCO3)cc2)nc1CS(=O)c1ccccc1 (centres unmarked),-0.416%
23,CC1CCC(NC(=O)C2CCN(C(=O)c3cnn(-c4ccccc4)c3-n3cccc3)CC2)CC1 (centres unmarked),-1.58%
24,O=C1CC(c2ccccc2)C2=C(CC(c3ccccc3)CC2=O)N1 (centres unmarked),-3.14%
25,CC1=CC2=NC(=O)/C(=C\c3ccco3)C(=N)N2O1,0.317%

row,SMILES,% Inhibition @ 10 uM
1,CN1CCN(C2CC3CCC2C3)CC1 (centres unmarked),-3.35%
2,COc1cc(C2C(C#N)=C(N)OC3=C2C(=O)CCC3)cc(Br)c1O (centres unmarked),-3.99%
3,CCOC(=O)N1CCN(C(=O)CSc2c3c(nc4ccccc24)CCCC3)CC1,-7.05%
4,COc1cc(N2CCCC2)c(OC)cc1/C=C1/NC(=O)NC1=O,-0.62%
5,CCN1C(=O)C(CC(=O)Nc2cc(Cl)ccc2C)S/C1=N\c1cccc(C(C)=O)c1 (centres unmarked),0.793%
6,C=CCn1c(=S)[nH]c2c(c1=O)C1(CCCC1)Cc1ccccc1-2,2.16%
7,CCc1cccc(C(=O)N[C@@H](CC(C)C)C(=O)NC(C#N)c2ccc(C)o2)c1 (some centres unmarked),1.71%
8,Cc1ccc(Cn2ccc(NC(=O)c3cc(C)on3)n2)cc1,-11.5%
9,COc1ccc(C2CC(=O)N3CN(C(C)c4ccccc4)CSC3=C2C#N)cc1OC (centres unmarked),28%
10,O=c1c(-c2ccc(Cl)cc2Cl)coc2cc(O)ccc12,9.39%
11,O=C(CSc1nc(-c2cccc(F)c2)[nH]c1-c1ccccc1)NCc1ccco1,-1.58%
12,COc1ccc(CN2CCN(Cc3cccc(F)c3)CC2)cc1,-9.07%
13,COc1ccc(OC)c(C2CC(=O)N3CN(C4CCCCC4)CSC3=C2C#N)c1 (centres unmarked),9.77%
14,O=C(NCCCN1CCOCC1)c1cc2ccccc2[nH]1,0.0539%
15,CCOc1ccc(C2CC(=O)NC3=C2C(=O)CC(c2cccs2)C3)cc1 (centres unmarked),-3.51%
16,CC(C)C(O)(C#CCN1CCCCC1)C(C)C,0.912%
17,COc1cc(-c2nc3n(n2)C(c2ccccc2)C(C(=O)Nc2cccnc2)=C(C)N3)cc(OC)c1OC (centres unmarked),1.96%
18,Cc1cccc(N2C(=O)CC(N3CCN(C/C=C/c4ccccc4)CC3)C2=O)c1 (centres unmarked),6.1%
19,CCOc1ccc2[nH]c(SCC(=O)Nc3cccc(C(C)=O)c3)nc2c1,-7.09%
20,Cc1ccc(-c2[nH]nc3c2C(c2ccccc2)C2=C(O)CC(C)(C)CC2=N3)cc1 (centres unmarked),-3.85%
21,COc1ccc(C2=NC(C)(C)Cc3cc(OC)c(OC)c(OC)c32)cc1OC,1.74%
22,Cc1cccn2c(=O)c3cc(C(=O)NCCCOC(C)C)n(C)c3nc12,-7.22%
23,CC(C)Cn1c(C(O)c2ccccc2)nc2ccccc21 (centres unmarked),3.81%
